These results are taken from PubChem BioAssay AID463173 (ICCB-Longwood Screening Facility, Harvard Medical School, 2010).

Hit rate of the full screen: of about 52,000 compounds, about 4,300 (8.3%) were called active. Rule as the data show it: active = survival mostly below about 52% (no sharp cut-off); inactive = mostly above about 56%. The list shows a part of the results.

The assay has as its system DeltatarO mutant. The experiment in a line: growth inhibition of S. aureus wild type versus tarO mutant, primary screen, teichoic acid synthesis inhibitors, RN4220, OD600 (AID 463173). Conditions: OD600, 18 h, active compounds read low, screened at 18.75 µg/mL (by protocol).
Regarding `Cc1oc2ncn(C)c(=O)c2c1C(=O)N1CCN(c2ccccc2)CC1`, the survival is inactive: 103%.

For `O=C(Oc1ccc(F)cc1)c1nc(SCc2ccccc2F)ncc1Cl`, the survival was inactive: 75%.

With `COc1ccccc1C(=O)NC1(C(F)(F)F)C(=O)Nc2c1c(=O)[nH]c(=O)n2-c1ccccc1` (stereo not drawn), the survival was inactive: 78%.

Regarding `O=C(Nc1ccc(Cl)cc1Cl)c1cc(S(=O)(=O)N2CCc3ccccc32)ccc1F`, the survival was inactive: 82%.

Turning to `Cc1cccc(N2CCN(C(=O)c3c(C)oc4ncnc(N5CCCCC5)c34)CC2)c1C`, the survival is inactive: 76%.

Regarding `Cc1ccc(C)c(Nc2nc3c(S(=O)(=O)c4ccc(C(C)C)cc4)nnn3c3ccsc23)c1`, the survival is inactive: 55%.

As for `CCOC(=O)c1noc2nc(C)n(CC(=O)Nc3ccccc3F)c(=O)c12`, the survival is inactive: 122%.

On to `CCOC(=O)c1ccccc1NC(=O)c1cc2c(=O)oc3ccc(C)cc3c2s1`, for which the survival was inactive: 72%.

Regarding `CC1=C(C(=O)N2CCN(c3cccc(C(F)(F)F)c3)CC2)C2(CCCCC2)OC1=O`, the survival is inactive: 124%.

Regarding `COC(=O)c1c(Oc2ccc(C(C)=O)cc2)nnc(-c2ccccc2)c1-c1ccccc1`, the survival is inactive: 64%.

With `COc1ccccc1CNC(=O)CN1C(=O)CSc2ccc(S(=O)(=O)N3CCCCC3)cc21`, the survival was inactive: 74%.

Turning to `COc1ccc(OC)c(-n2cnc3cc(C(=O)NC4CCCCCC4)ccc32)c1`, the survival is inactive: 87%.

With `COc1ccccc1NC(=O)c1cnc(SCC(=O)N2CCCc3ccccc32)n(C)c1=O`, the survival is inactive: 76%.

With `CC(C)CN(CCCNC(=O)CN1C(=O)CSc2ccc(S(=O)(=O)N3CCOCC3)cc21)CC(C)C`, the survival is inactive: 88%.

Consider `CCOc1ccc(CNC(=O)CSc2nnc(C)c3c(C)n(-c4ccccc4)nc23)cc1`, for which the survival was inactive: 82%.

Consider `COc1ccc(C(C(=O)NC2CCCC2)N(C(=O)c2ccco2)c2ccc(NC(C)=O)cc2)cc1OC` (stereo not drawn), for which the survival is inactive: 86%.

For `Cc1ccccc1CCNC(=O)c1ccc2c(c1)c(C)c(C)n2Cc1ccccc1`, the survival is inactive: 102%.

As for `COc1ccc(S(=O)(=O)n2ccnc2)cc1C(C)(C)C`, the survival is inactive: 68%.

`CCc1ccccc1N1C(=O)N(Cc2ccccc2C)c2ccccc2S1(=O)=O`: the survival is inactive: 84%.

As to `COc1ccc(OC)c2sc(N3CCN(C(=O)C4CC4)CC3)nc12`, the survival was active: -5%.

Take `CCOC(=O)c1c(S(=O)(=O)N2CCCC(C(=O)N(C)Cc3ccccc3)C2)c(C)n(C)c1C` (stereo not drawn): the survival was inactive: 92%.

Regarding `COc1cc(NC(=O)Cn2ccn(Cc3ccccc3OC)c(=O)c2=O)cc(OC)c1`, the survival was inactive: 52%.

As to `COC(=O)c1cc2c(cc1NC(=O)c1c(C)nn(-c3ccc(C)cc3)c1-n1cccc1)OCO2`, the survival is inactive: 99%.

Consider `Cc1cccc(-n2c(-c3ccco3)nc3c(cnn3-c3ccccc3C)c2=O)c1`, for which the survival is inactive: 132%.

With `Cc1ccc(C(c2sc3nc(-c4ccco4)nn3c2O)N2CCOCC2)cc1` (stereo not drawn), the survival is inactive: 80%.

Regarding `O=C(CN1CCN(Cc2ccc(F)cc2Cl)S1(=O)=O)Nc1ccc(F)cc1`, the survival was inactive: 134%.

Take `Clc1cc2c(cc1Cl)Nc1cc(Cl)c(Cl)cc1N2`: the survival is inactive: 70%.

As to `Cc1ccc(Cn2nc(C)c(NC(=O)c3cc(-c4ccc(F)cc4)on3)c2C)cc1`, the survival was inactive: 61%.

With `Cc1nn(C(=O)c2ccccc2)c(C)c1Sc1ccc(Cl)cc1`, the survival is active: 10%.

Turning to `CCOc1ccc(NC(=O)Cn2c(=O)oc3cc(S(=O)(=O)NC4CCCC4)ccc32)cc1`, the survival is inactive: 69%.

As for `Cc1ccc(NC(=O)Cn2c(C)cc(C)c(C#N)c2=O)cc1`, the survival is inactive: 94%.

In the case of `Cc1cccc(Cn2c(C)c(C)c3cc(C(=O)NCc4ccco4)ccc32)c1`, the survival is inactive: 94%.

Consider `COC(=O)CN(c1ccccn1)S(=O)(=O)c1ccccc1`, for which the survival was inactive: 103%.

As for `CC(=O)Nc1ccccc1OCc1cc(=O)n2c3c(sc2n1)CCCC3`, the survival is inactive: 120%.

Regarding `Cn1c2ccccc2c2cnn(CC(=O)NCc3ccc(Cl)cc3)c(=O)c21`, the survival was inactive: 84%.

Consider `COc1ccc2[nH]c(=O)c(CN(C(=O)c3cccc(Cl)c3)c3ccccc3OC)cc2c1`, for which the survival is inactive: 78%.

`CS(=O)(=O)N1CCc2cc(S(=O)(=O)NCc3ccccc3Cl)ccc21`: the survival is inactive: 96%.

`COc1ccc(S(=O)(=O)NCCc2csc3nc(-c4ccc(Cl)cc4)nn23)cc1C`: the survival is inactive: 95%.

As to `COc1ccc(-c2nc(Cn3c(SCc4cccc(Cl)c4)nc4ccncc43)c(C)o2)cc1`, the survival was inactive: 84%.

As for `Cn1cnc(S(=O)(=O)N2CCC(C(=O)NCc3ccccc3)CC2)c1`, the survival was inactive: 74%.

With `CC1=C(c2ccc(F)cc2)S(=O)(=O)N=C1N1CCC(C(=O)NCCc2ccco2)CC1`, the survival is inactive: 120%.

Turning to `Cc1ccc(Sc2c(C)nn(C(=O)COc3ccccc3)c2C)cc1`, the survival was active: 25%.

In the case of `CCOc1ccc(CCNC(=O)c2cn(C)c3ccc(S(=O)(=O)N4CCOCC4)cc3c2=O)cc1OCC`, the survival is active: 56%.

In the case of `Cc1cc(NS(=O)(=O)c2ccc(NC(=O)c3ccccc3F)cc2)nc(C)n1`, the survival was inactive: 57%.

For the compound `COc1ccccc1N1CCN(CC(=O)c2ccc(F)cc2)CC1`, the survival is inactive: 89%.

On to `Cc1ccccc1NC(=O)C1CCC(CNS(=O)(=O)c2ccc3c(c2)C(C)(C)C(=O)N3C)CC1` (stereo not drawn), for which the survival was inactive: 50%.

Turning to `O=C(CSc1nnc(Cc2ccccc2)o1)c1ccccc1`, the survival is inactive: 67%.

For `COc1ccc(OCc2ccc(-c3nc(C#N)c(N4CCC(C)CC4)o3)o2)cc1`, the survival is inactive: 54%.

Regarding `O=c1oc(-c2ccco2)nc2ccccc12`, the survival is inactive: 64%.

As to `CCc1ccc(S(=O)(=O)c2nnn(-c3ccc(F)cc3)c2N)cc1`, the survival was inactive: 85%.

In the case of `Cc1ccc(NC(=O)c2ccc3snnc3c2)cc1Cl`, the survival was inactive: 109%.

For `C=C(C)Cn1c(SCC(=O)Nc2cc(C)ccc2C)nc2sc3c(c2c1=O)CCCC3`, the survival is inactive: 138%.

In the case of `COc1cccc(C(=O)Nc2cc(C)on2)c1`, the survival was inactive: 89%.

In the case of `Cc1cccc(OCC(=O)NCC2(N3CCN(C)CC3)CCCCC2)c1C`, the survival was inactive: 104%.

`COc1ccc(-c2ccc(Nc3ccc(C(=O)N4CCCCCC4)cc3)nn2)cc1`: the survival was inactive: 71%.

As for `CCOc1cc(-c2nnc(SCC(=O)NCc3ccccc3)nc2-c2ccc(OC)c(OCC)c2)ccc1OC`, the survival is inactive: 67%.

As to `COc1ccc(/C=C\c2onc(C)c2S(=O)(=O)N2CCC(C(=O)Nc3ccc(Cl)cc3)CC2)cc1`, the survival is inactive: 65%.

Take `CCc1ccc(NC(=O)C2CCCN(S(=O)(=O)c3ccc4c(c3)CCCN4C(C)=O)C2)cc1` (stereo not drawn): the survival was inactive: 78%.

As for `COc1ccc(C(=O)N2CC(=O)Nc3ccc(C)cc3C2c2ccccc2)c(OC)c1` (stereo not drawn), the survival was inactive: 59%.

For the compound `Cc1ccc(-n2ncc(C(=O)N3CCCCC3)c2C2CCN(C(=O)OC(C)(C)C)CC2)cc1C`, the survival was inactive: 94%.

For `CCC(=O)N1CCc2cc(Br)cc(S(=O)(=O)CCC(=O)N3CCN(c4ccccc4OC)CC3)c21`, the survival is inactive: 80%.

Consider `COc1cc(OC)cc(C(=O)N2CCC(C(=O)NCCc3ccccc3)CC2)c1`, for which the survival is inactive: 98%.

On to `COc1ccc(-c2ccnc3[nH]n(-c4ccccc4)c(=O)c23)cc1`, for which the survival was inactive: 61%.

In the case of `COc1ccccc1N1CCN(S(=O)(=O)c2ccc3[nH]c4c(c3c2)CCCC4)CC1`, the survival was inactive: 79%.

As to `COc1ccc(OCC(=O)Nc2ccc3c(c2)OCO3)cc1`, the survival was inactive: 76%.

As for `CCOc1cccc(NC(=O)C2CC(=O)N(C)C(=Nc3cccc(OC)c3)S2)c1` (stereo not drawn), the survival is inactive: 82%.

With `CCN(CCCNC(=O)CSc1cc(=O)n(C)c2ccccc12)c1ccccc1`, the survival was inactive: 65%.

Turning to `O=C(Nc1ccc(Cl)cc1Cl)c1cc(S(=O)(=O)N2CCC3(CC2)OCCO3)ccc1F`, the survival was inactive: 96%.

Consider `Cc1cc(C)c(NC(=O)C(C)n2c(=O)cc(C)c3c(C)nn(-c4ccccc4)c32)c(C)c1` (stereo not drawn), for which the survival is inactive: 81%.

`O=C(NC1CCCCCC1)C1CCN(C(=O)N2CCOc3ccc(Cl)cc32)CC1`: the survival is active: 46%.

Take `CCCCc1nn2c(=O)cc(COC(=O)c3cccc(NC(=O)COc4ccccc4)c3)nc2s1`: the survival was inactive: 97%.

Regarding `Cc1cc(C)n(-c2nc3ccccc3nc2Nc2ccc(C(C)C)cc2)n1`, the survival was active: 8%.

On to `CCOCCCNC(=O)c1ccc2c(c1)NC(=O)C(CS(=O)(=O)Cc1ccc(F)cc1Cl)N2` (stereo not drawn), for which the survival is inactive: 88%.

Take `CC(OC(=O)C1CCCCC1)c1nc2ccccc2[nH]1` (stereo not drawn): the survival was inactive: 92%.

On to `Cc1cc(C)c(NC(=O)Cn2c(=O)n(-c3cccc(C(F)(F)F)c3)c(=O)c3c(C)c(C)sc32)c(C)c1`, for which the survival is inactive: 92%.

`COc1ccccc1NC(=O)C(Cc1ccccc1)NS(=O)(=O)c1ccc2c(c1)CCN2C(C)=O` (stereo not drawn): the survival was inactive: 84%.

Regarding `O=C(O)c1ccc(Nc2nc3ccccc3c3nncn23)cc1`, the survival was inactive: 95%.

Take `CCc1ccccc1Nc1nn2c(=O)c3ccc(C(=O)NCc4ccc(C)cc4)cc3nc2s1`: the survival is inactive: 93%.

Regarding `Nc1ccc(N2CCOCC2)cc1C(F)(F)F`, the survival was inactive: 80%.

For the compound `CC(=O)N1CCc2c(sc3c2c(=O)n(-c2ccccc2)c(=O)n3CC(=O)c2ccc(Cl)cc2)C1`, the survival was inactive: 93%.

In the case of `O=C(NCc1cccc(F)c1)C1CCN(c2nc3ccccc3nc2C(F)(F)F)CC1`, the survival was inactive: 92%.

As for `COCCNC(=O)CCn1c(=O)c2cc(OC)c(OC)cc2n(CC(=O)Nc2ccc(F)c(Cl)c2)c1=O`, the survival was inactive: 62%.

As to `O=C(NCCCc1nc2ccccc2n1Cc1ccc(F)cc1)C1CCCCC1`, the survival is inactive: 78%.

`Cc1ccc(C)c(CSc2nc3c([nH]c4ccccc43)c(=O)n2C)c1`: the survival is inactive: 86%.

Consider `COC(=O)C1=C(N)OC2=C(C(=O)CCC2)C1c1ccc(OC)cc1` (stereo not drawn), for which the survival is inactive: 102%.

For `CC(C)c1ccc2oc(-c3ccc(Cl)c(NC(=O)c4cccs4)c3)nc2c1`, the survival was active: 5%.

With `Cn1nc(-c2ccc(OCC(=O)Nc3cccc(C(F)(F)F)c3)cc2)c2ccccc2c1=O`, the survival was inactive: 78%.

For `Cc1cccc(C)c1OCc1cc(=O)n2c(-c3ccccc3)csc2n1`, the survival is active: 19%.
